Source: the supplement of paper PMC10369915
Some of the results follow. No stated cut-off is given here; in the data, active = 3.2 or more and inactive = the rest. The signal is at background level for most entries.

Key:
Assay in all cases: enrichment score (SH2-bound / input frequency) (ratio); bacterial display of known human phosphotyrosine sites (pTyr-Var adds point mutants) read by sequencing; higher = stronger binding; tyrosines were phosphorylated by kinases first
Conditions in all cases: peptide library: pTyr-Var
SHP2 C-SH2 domain E139D = target: SHP2 C-SH2 domain E139D
[1] = target: SHP2 C-SH2 domain wild-type
SHP2 N-SH2 domain L43F = target: SHP2 N-SH2 domain L43F
SHP2 N-SH2 domain T42A = target: SHP2 N-SH2 domain T42A
SHP2 N-SH2 domain T52S = target: SHP2 N-SH2 domain T52S
[2] = target: SHP2 N-SH2 domain wild-type

Measured: enrichment score
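Further: displayed peptides selected on beads carrying the immobilized SH2 domain, with library peptides lacking any tyrosine serving as negative controls.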

CEHRGFLYLAI [TEK_Y897_Y897F]
inactive: SHP2 C-SH2 domain E139D 0.714 | [1] 1.01 | SHP2 N-SH2 domain L43F 0.911 | SHP2 N-SH2 domain T42A 0.935 | SHP2 N-SH2 domain T52S 1.06 | [2] 0.915

FLEEEYVKAVG [TF_Y674_G671E_YF]
inactive: SHP2 C-SH2 domain E139D 0.759 | [1] 0.791 | SHP2 N-SH2 domain L43F 0.965 | SHP2 N-SH2 domain T42A 0.71 | SHP2 N-SH2 domain T52S 0.932 | [2] 0.969

FLGEEYVKAVG [TF_Y674_YF]
inactive: SHP2 C-SH2 domain E139D 0.867 | [1] 0.839 | SHP2 N-SH2 domain L43F 0.887 | SHP2 N-SH2 domain T42A 0.786 | SHP2 N-SH2 domain T52S 0.819 | [2] 0.935

HDRNTYEKYLE [TF_Y666_G671E]
inactive: SHP2 C-SH2 domain E139D 0.531 | [1] 0.723 | SHP2 N-SH2 domain L43F 0.643 | SHP2 N-SH2 domain T42A 0.599 | SHP2 N-SH2 domain T52S 0.714 | [2] 0.493

NREGVYRVFAP [TGFBI_Y537_T538R]
inactive: SHP2 C-SH2 domain E139D 0.623 | [1] 0.644 | SHP2 N-SH2 domain L43F 0.611 | SHP2 N-SH2 domain T42A 0.531 | SHP2 N-SH2 domain T52S 0.571 | [2] 0.778

ETCLAYMEKRI [TEKT1_Y118_R119M]
inactive: SHP2 C-SH2 domain E139D 0.875 | [1] 1.18 | SHP2 N-SH2 domain L43F 0.851 | SHP2 N-SH2 domain T42A 1.16 | SHP2 N-SH2 domain T52S 0.961 | [2] 1.25

HRGHLYLAIEF [TEK_Y899_Y897H_YF]
inactive: SHP2 C-SH2 domain E139D 0.422 | [1] 1.02 | SHP2 N-SH2 domain L43F 0.622 | SHP2 N-SH2 domain T42A 0.423 | SHP2 N-SH2 domain T52S 0.58 | [2] 1.31

NTYEKYLGEEY [TF_Y669]
inactive: SHP2 C-SH2 domain E139D 0.887 | [1] 0.636 | SHP2 N-SH2 domain L43F 0.786 | SHP2 N-SH2 domain T42A 0.666 | SHP2 N-SH2 domain T52S 0.807 | [2] 1.05

HHTNEYEFDEL [TGM1_Y134_D132N_YF]
inactive: SHP2 C-SH2 domain E139D 0.369 | [1] 0.454 | SHP2 N-SH2 domain L43F 0.231 | SHP2 N-SH2 domain T42A 0.566 | SHP2 N-SH2 domain T52S 0.351 | [2] 0.534

NREGVYTDFAP [TGFBI_Y537_V539D]
inactive: SHP2 C-SH2 domain E139D 0.774 | [1] 0.732 | SHP2 N-SH2 domain L43F 0.606 | SHP2 N-SH2 domain T42A 0.563 | SHP2 N-SH2 domain T52S 0.766 | [2] 0.81

WRGMPYGGRGD [TGM1_Y312_R307W]
inactive: SHP2 C-SH2 domain E139D 0.989 | [1] 0.862 | SHP2 N-SH2 domain L43F 0.931 | SHP2 N-SH2 domain T42A 0.768 | SHP2 N-SH2 domain T52S 0.957 | [2] 0.983

KSVEEYANCHL [TF_Y593_P589S]
inactive: SHP2 C-SH2 domain E139D 0.822 | [1] 0.864 | SHP2 N-SH2 domain L43F 0.887 | SHP2 N-SH2 domain T42A 0.663 | SHP2 N-SH2 domain T52S 0.763 | [2] 0.954

TNDMRYPMKSE [TGDS_Y302]
inactive: SHP2 C-SH2 domain E139D 0.47 | [1] 0.556 | SHP2 N-SH2 domain L43F 0.692 | SHP2 N-SH2 domain T42A 0.482 | SHP2 N-SH2 domain T52S 0.596 | [2] 0.548

DKMEAYNINET [TEKT4_Y210_D213N]
inactive: SHP2 C-SH2 domain E139D 0.426 | [1] 0.45 | SHP2 N-SH2 domain L43F 0.617 | SHP2 N-SH2 domain T42A 0.555 | SHP2 N-SH2 domain T52S 0.484 | [2] 0.572

HHTNEYEYDEL [TGM1_Y134_D132N]
inactive: SHP2 C-SH2 domain E139D 0.876 | [1] 0.703 | SHP2 N-SH2 domain L43F 0.409 | SHP2 N-SH2 domain T42A 0.941 | SHP2 N-SH2 domain T52S 0.969 | [2] 0.643

HLQQSNLPRGT [TEX45_Y396_Y396N]
inactive: SHP2 C-SH2 domain E139D 0.855 | [1] 1.21 | SHP2 N-SH2 domain L43F 0.684 | SHP2 N-SH2 domain T42A 0.725 | SHP2 N-SH2 domain T52S 0.825 | [2] 0.81

PEVSGYCHCAD [TG_Y234]
inactive: SHP2 C-SH2 domain E139D 1.09 | [1] 1.28 | SHP2 N-SH2 domain L43F 0.884 | SHP2 N-SH2 domain T42A 1.1 | SHP2 N-SH2 domain T52S 1.1 | [2] 1.18

CEHRGFLFLAI [TEK_Y897_Y897F_YF]
inactive: SHP2 C-SH2 domain E139D 1.36 | [1] 1.28 | SHP2 N-SH2 domain L43F 1.08 | SHP2 N-SH2 domain T42A 1.21 | SHP2 N-SH2 domain T52S 1.18 | [2] 1.02

SHMVNYQPFRK [TEX37_Y25_D24N_YF]
inactive: SHP2 C-SH2 domain E139D 0.797 | [1] 0.672 | SHP2 N-SH2 domain L43F 0.81 | SHP2 N-SH2 domain T42A 0.692 | SHP2 N-SH2 domain T52S 0.722 | [2] 0.698

CEHRGHLFLAI [TEK_Y897_Y897H_YF]
inactive: SHP2 C-SH2 domain E139D 1.27 | [1] 1.14 | SHP2 N-SH2 domain L43F 1.12 | SHP2 N-SH2 domain T42A 1.18 | SHP2 N-SH2 domain T52S 1.07 | [2] 1.25

DWRQEYVLNES [TGM1_Y267]
inactive: SHP2 C-SH2 domain E139D 0.647 | [1] 0.616 | SHP2 N-SH2 domain L43F 0.658 | SHP2 N-SH2 domain T42A 0.542 | SHP2 N-SH2 domain T52S 0.657 | [2] 0.602

SDFSRYARTSI [TERT_Y949_S948R_YF]
inactive: SHP2 C-SH2 domain E139D 0.614 | [1] 0.448 | SHP2 N-SH2 domain L43F 0.446 | SHP2 N-SH2 domain T42A 0.503 | SHP2 N-SH2 domain T52S 0.464 | [2] 0.528

HRGSLYLAIEF [TEK_Y899_Y897S_YF]
inactive: SHP2 C-SH2 domain E139D 0.968 | [1] 1.54 | SHP2 N-SH2 domain L43F 1.38 | SHP2 N-SH2 domain T42A 0.797 | SHP2 N-SH2 domain T52S 0.91 | [2] 1.6

HEPKGYNANFC [TGFB2_Y341]
inactive: SHP2 C-SH2 domain E139D 0.695 | [1] 0.574 | SHP2 N-SH2 domain L43F 0.67 | SHP2 N-SH2 domain T42A 0.422 | SHP2 N-SH2 domain T52S 0.549 | [2] 0.795

CEHRGSLFLAI [TEK_Y897_Y897S_YF]
inactive: SHP2 C-SH2 domain E139D 0.934 | [1] 1.09 | SHP2 N-SH2 domain L43F 0.904 | SHP2 N-SH2 domain T42A 0.865 | SHP2 N-SH2 domain T52S 1.51 | [2] 1.25

SDYSRYARTSI [TERT_Y949_S948R]
inactive: SHP2 C-SH2 domain E139D 0.742 | [1] 0.554 | SHP2 N-SH2 domain L43F 0.616 | SHP2 N-SH2 domain T42A 0.484 | SHP2 N-SH2 domain T52S 0.549 | [2] 0.651

TDEFEYDELIV [TGM1_Y136_YF]
inactive: SHP2 C-SH2 domain E139D 0.321 | [1] 0.31 | SHP2 N-SH2 domain L43F 0.758 | SHP2 N-SH2 domain T42A 1.13 | SHP2 N-SH2 domain T52S 0.478 | [2] 0.342

HRGFLYLAIEY [TEK_Y899_Y897F]
inactive: SHP2 C-SH2 domain E139D 0.718 | [1] 0.736 | SHP2 N-SH2 domain L43F 0.669 | SHP2 N-SH2 domain T42A 0.672 | SHP2 N-SH2 domain T52S 0.454 | [2] 0.895

ALECLYHREKR [TEKT5_Y195]
inactive: SHP2 C-SH2 domain E139D 0.739 | [1] 0.845 | SHP2 N-SH2 domain L43F 0.517 | SHP2 N-SH2 domain T42A 0.592 | SHP2 N-SH2 domain T52S 0.596 | [2] 1.33

AVLALHNSTRD [TGFB1_Y81_Y81H]
inactive: SHP2 C-SH2 domain E139D 0.885 | [1] 0.942 | SHP2 N-SH2 domain L43F 0.895 | SHP2 N-SH2 domain T42A 0.849 | SHP2 N-SH2 domain T52S 0.753 | [2] 1.14

RRGMPYGGCGD [TGM1_Y312_R315C]
inactive: SHP2 C-SH2 domain E139D 0.479 | [1] 0.324 | SHP2 N-SH2 domain L43F 0.129 | SHP2 N-SH2 domain T42A 0.375 | SHP2 N-SH2 domain T52S 0.365 | [2] 0.494

HRGSLYLAIEY [TEK_Y899_Y897S]
inactive: SHP2 C-SH2 domain E139D 0.518 | [1] 0.933 | SHP2 N-SH2 domain L43F 0.951 | SHP2 N-SH2 domain T42A 0.442 | SHP2 N-SH2 domain T52S 0.601 | [2] 1.02

HRGHLYLAIEY [TEK_Y899_Y897H]
inactive: SHP2 C-SH2 domain E139D 1.4 | [1] 0.729 | SHP2 N-SH2 domain L43F 0.465 | SHP2 N-SH2 domain T42A 1.06 | SHP2 N-SH2 domain T52S 1.53 | [2] 1.96

YLGEEYVKAVG [TF_Y674]
inactive: SHP2 C-SH2 domain E139D 0.814 | [1] 0.679 | SHP2 N-SH2 domain L43F 0.609 | SHP2 N-SH2 domain T42A 0.925 | SHP2 N-SH2 domain T52S 0.631 | [2] 0.778

SGDDGYAKDAQ [TENM4_Y1530_K1535Q]
inactive: SHP2 C-SH2 domain E139D 0.485 | [1] 0.33 | SHP2 N-SH2 domain L43F 0.451 | SHP2 N-SH2 domain T42A 0.358 | SHP2 N-SH2 domain T52S 0.355 | [2] 0.414

HDRNTYEKFLE [TF_Y666_G671E_YF]
inactive: SHP2 C-SH2 domain E139D 0.826 | [1] 0.609 | SHP2 N-SH2 domain L43F 0.758 | SHP2 N-SH2 domain T42A 0.777 | SHP2 N-SH2 domain T52S 0.62 | [2] 0.911

ALECLYRREKR [TEKT5_Y195_H196R]
inactive: SHP2 C-SH2 domain E139D 0.246 | [1] 0.228 | SHP2 N-SH2 domain L43F 0.224 | SHP2 N-SH2 domain T42A 0.181 | SHP2 N-SH2 domain T52S 0.177 | [2] 0.371
